This is one part of the list. The list includes weakly bound sequences.

The text below walks through data of article PMC4242493.

The target in the assay is MaxL homodimer (UniProt P61244). Kind of assay: universal protein-binding microarray (PBM). The conditions noted are these: PBS-based mixture, 10 nM His-tagged protein dimer, 2% milk, 200 ng/uL BSA, 50 ng/uL salmon testes DNA, 0.02% TX-100; detection with Alexa 488 anti-His …; high values mean tight binding; most listed sequences are background and not binding sites; double strand, one strand shown.
Sequence of UniProt P61244 (P61244 whole entry): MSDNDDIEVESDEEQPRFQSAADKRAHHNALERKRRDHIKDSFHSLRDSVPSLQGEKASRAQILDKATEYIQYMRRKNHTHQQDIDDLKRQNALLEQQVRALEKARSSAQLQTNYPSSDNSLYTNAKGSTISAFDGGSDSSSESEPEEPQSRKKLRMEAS
Regarding TACCGTAA, the binding signal (normalized occupancy) stood at 0.0744.
Consider CACATCTG, for which the binding signal (normalized occupancy) stood at 0.0871.
For GTCTCAGA, the binding signal (normalized occupancy) came to 0.0751.
The same measure for ATGAGAGG: 0.0755.
The result for TCTAGTAA reads 0.0783; that for AACGGCCC, 0.0679; that for ACAAACAT, 0.0871.
For AGTCTTAA, the binding signal (normalized occupancy) was 0.0743.
With AGGCGGAT, the binding signal (normalized occupancy) worked out at 0.0708.
For the sequence CATTGGGG, the binding signal (normalized occupancy) was 0.0853.
For the sequence AGGCGGCG, the binding signal (normalized occupancy) came to 0.0693.
Consider GCACTCCA, for which the binding signal (normalized occupancy) stood at 0.0756.
Turning to AGACTATA, the binding signal (normalized occupancy) is 0.0771.
In the case of GTTCCATA, the binding signal (normalized occupancy) stood at 0.0847.
In the case of CGGGATTC, the binding signal (normalized occupancy) was found to be 0.0741.
On to AAACCACG, for which the binding signal (normalized occupancy) came to 0.0972.
On to CGGACTAC, for which the binding signal (normalized occupancy) was 0.0743.
The result for TCATCAAA reads 0.0748.
Consider ATTCGTTC, for which the binding signal (normalized occupancy) came out at 0.0776.
As for AGTATTGG, the binding signal (normalized occupancy) was determined as 0.0738.
Take CTTCAATA: the binding signal (normalized occupancy) amounted to 0.0784.
On to ATTCTACG, for which the binding signal (normalized occupancy) was found to be 0.0767.
In the case of CACGTAAG, the binding signal (normalized occupancy) was found to be 0.0796.
On to ACAGACGT, for which the binding signal (normalized occupancy) came out at 0.0771.
Consider ACATGGGT, for which the binding signal (normalized occupancy) worked out at 0.1.
As to GTGGTCCA, the binding signal (normalized occupancy) came to 0.0853.
GGTCAATA: the binding signal (normalized occupancy) turned out to be 0.0817.
For the sequence AACGCTAA, the binding signal (normalized occupancy) was found to be 0.0764.
As for CTGACTTC, the binding signal (normalized occupancy) was found to be 0.0702.
The result for CTTATGCA reads 0.0817; that for AATCCTAC, 0.0777.
Regarding ACAAGCCA, the binding signal (normalized occupancy) stood at 0.0785.
AGTTTGAA: the binding signal (normalized occupancy) was found to be 0.0729.
On to GCAATCAC, for which the binding signal (normalized occupancy) is 0.0763.
For the sequence AAACAGCC, the binding signal (normalized occupancy) is 0.0712.
As to CTTACTGA, the binding signal (normalized occupancy) stood at 0.0709.
Regarding AGCATTAG, the binding signal (normalized occupancy) came out at 0.0766.
For the sequence ATTGCCGG, the binding signal (normalized occupancy) was 0.0696.
For GGCTCGTA, the binding signal (normalized occupancy) is 0.0762.
Turning to GCATTCGC, the binding signal (normalized occupancy) came to 0.0709.
The result for GAATGACC reads 0.0752; that for ACAGATTG, 0.0752.
As for ATATTGCA, the binding signal (normalized occupancy) was 0.0767.
As for CCAGCCAG, the binding signal (normalized occupancy) amounted to 0.0737.
As for GCATTCCC, the binding signal (normalized occupancy) turned out to be 0.0791.
The result for TAACGCAA reads 0.0766.
As for GTATCTGA, the binding signal (normalized occupancy) worked out at 0.0784.
As to GCTATTCA, the binding signal (normalized occupancy) was 0.0731.
Regarding ATAAAGGC, the binding signal (normalized occupancy) turned out to be 0.0757.
The same measure for CCCGTTGC: 0.0682; for ACACGGAT: 0.0806; for ACGGCCTG: 0.0707.
As to AACAGACT, the binding signal (normalized occupancy) came to 0.0794.
The same measure for AGTTCCCA: 0.0684; for AACTTCGT: 0.0691.
As to ATTATATC, the binding signal (normalized occupancy) was found to be 0.0811.
In the case of AGGTAGAT, the binding signal (normalized occupancy) was determined as 0.0759.
Consider CAGCCGAC, for which the binding signal (normalized occupancy) was found to be 0.0758.
The result for CAGTAACG reads 0.0748; that for CCGAACAA, 0.0756; that for TATGTTAA, 0.0796.
As to CAGTGTTC, the binding signal (normalized occupancy) came to 0.071.
The result for GCCTACTA reads 0.0703; that for CCCTTCGG, 0.0671; that for ATCGCCAC, 0.0789.
For the sequence GATGGCGC, the binding signal (normalized occupancy) is 0.0717.
The same measure for ACAGGACC: 0.0698; for CCGTGTGC: 0.0858.
The same measure for CCGAACTC: 0.0678; for AATATCAT: 0.0842; for GAGTCGTA: 0.0742.
CGAGGGCA: the binding signal (normalized occupancy) is 0.0765.
Consider ACTCCTTA, for which the binding signal (normalized occupancy) came out at 0.0782.
The same measure for ACCCGACC: 0.0766; for CAACCATC: 0.0774.
In the case of ATCCGAAC, the binding signal (normalized occupancy) was 0.0723.
On to CGAAAGCG, for which the binding signal (normalized occupancy) was 0.067.
For the sequence CGCTTTTA, the binding signal (normalized occupancy) amounted to 0.0697.
As to ACCGAGGC, the binding signal (normalized occupancy) was determined as 0.0719.
With AGCAAAAT, the binding signal (normalized occupancy) turned out to be 0.0746.
GGATTCGA: the binding signal (normalized occupancy) came out at 0.0769.
The result for ATACGCGC reads 0.0771; that for CCATGTCC, 0.0824; that for ATTTCCCG, 0.07.
In the case of CACGTGGC, the binding signal (normalized occupancy) amounted to 0.837.
Consider CGGCGATC, for which the binding signal (normalized occupancy) turned out to be 0.0709.
As to AGACATCC, the binding signal (normalized occupancy) was determined as 0.0736.
Take ACAGCCTC: the binding signal (normalized occupancy) amounted to 0.0748.
As to GTATGCAA, the binding signal (normalized occupancy) was 0.0777.
In the case of ACACCAAC, the binding signal (normalized occupancy) is 0.0768.
As for CTATATGC, the binding signal (normalized occupancy) was 0.0831.
The result for ATACACCA reads 0.0809; that for AAAACTTA, 0.0713; that for CGACAAAG, 0.0696.
